# The whole screen tested about 310,000 compounds, of which about 2,200 (0.71%) showed an effect of 50% or more. The effect is printed as a negative number. The list shows a part of the results.
# Molecular target: human ether-à-go-go-related gene (hERG) potassium channel (human, UniProt Q12809)
# Assay: primary screen, population patch clamp on CHO cells stably expressing hERG
# Chain of human ether-à-go-go-related gene (hERG) potassium channel (Q12809 whole entry, looked up): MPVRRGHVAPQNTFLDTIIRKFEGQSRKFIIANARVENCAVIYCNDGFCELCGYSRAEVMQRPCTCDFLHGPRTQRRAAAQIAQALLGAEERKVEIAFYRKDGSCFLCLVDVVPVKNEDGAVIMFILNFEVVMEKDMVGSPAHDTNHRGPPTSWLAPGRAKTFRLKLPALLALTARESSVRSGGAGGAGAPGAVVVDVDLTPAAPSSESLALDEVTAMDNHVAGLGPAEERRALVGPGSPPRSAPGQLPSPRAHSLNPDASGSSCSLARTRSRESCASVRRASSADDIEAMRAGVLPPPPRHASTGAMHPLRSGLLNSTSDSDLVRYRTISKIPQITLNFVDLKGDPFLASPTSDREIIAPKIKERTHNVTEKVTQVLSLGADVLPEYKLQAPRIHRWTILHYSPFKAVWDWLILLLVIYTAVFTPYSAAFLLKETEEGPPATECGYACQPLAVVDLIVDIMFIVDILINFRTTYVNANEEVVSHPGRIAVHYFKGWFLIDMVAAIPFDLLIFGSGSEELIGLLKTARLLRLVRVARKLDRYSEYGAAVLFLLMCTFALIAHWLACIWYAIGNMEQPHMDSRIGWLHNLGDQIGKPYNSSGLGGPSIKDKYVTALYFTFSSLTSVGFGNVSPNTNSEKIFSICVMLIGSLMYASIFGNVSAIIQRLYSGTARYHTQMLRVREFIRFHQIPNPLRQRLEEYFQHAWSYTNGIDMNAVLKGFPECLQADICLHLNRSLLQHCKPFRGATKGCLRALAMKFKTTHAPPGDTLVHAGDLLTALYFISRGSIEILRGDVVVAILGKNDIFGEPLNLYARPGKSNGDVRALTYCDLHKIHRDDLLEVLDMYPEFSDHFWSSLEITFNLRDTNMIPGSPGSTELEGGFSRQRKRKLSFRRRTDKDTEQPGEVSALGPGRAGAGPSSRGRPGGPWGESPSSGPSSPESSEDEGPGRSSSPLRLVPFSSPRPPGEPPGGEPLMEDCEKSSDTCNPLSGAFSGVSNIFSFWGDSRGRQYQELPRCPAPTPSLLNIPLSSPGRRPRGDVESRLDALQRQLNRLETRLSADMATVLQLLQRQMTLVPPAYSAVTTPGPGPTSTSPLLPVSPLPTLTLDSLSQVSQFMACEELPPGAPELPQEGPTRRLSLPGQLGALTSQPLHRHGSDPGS
row,Structure (SMILES),"hERG current change (%, negative = inhibition) at 1uM [%]"
1,O=C(NCCC(=O)N1CCN(c2cccc(Cl)c2)CC1)c1ccc(Br)cc1,3.83
2,COCCn1c(N)c(N(Cc2ccccc2)C(=O)c2oc3ccccc3c2C)c(=O)[nH]c1=O,12.9
3,O=C(CSc1cccc(C(F)(F)F)c1)NCc1ccccc1,10.8
4,CCOC(=O)c1[nH]c2c(c1C)C(=O)CC(c1ccc(F)cc1)C2 (stereo not shown),9.28
5,Cn1ncc(Cl)c1C(=O)NC(=S)Nc1sc2c(c1C#N)CCCCC2,14.8
6,c1ccc2c(c1)OCCOCCOCCO2,13.2
7,COC(=O)c1[nH]c2ccccc2c1NC(=O)CN1CCN(C/C=C/c2ccccc2)CC1,-84.4
8,COc1ccccc1CN1CCN(C(=O)c2ccco2)CC1.O=C(O)C(=O)O,12.3
9,COc1ccc(NS(=O)(=O)c2ccc(S(=O)(=O)N3CCCC3)cc2)cc1,6.34
10,O=C(Cn1ccc2ccccc21)Nc1ccc2c(c1)OCO2,9.07
11,CCCCn1c(-c2ccccc2)cnc1SCC(=O)NCCc1ccc(OC)c(OC)c1.Cl,2.66
12,CCOC(=O)c1ccc(N2C(=O)CC(SCC(=O)Nc3ccc(S(N)(=O)=O)cc3)C2=O)cc1 (stereo not shown),16.7
13,O=C(COc1ccc(F)cc1)Nc1nccs1,6.39
14,COc1cc(C(CC(=O)N2CCCC2)c2c(OC)cc(OC)c3c(-c4ccccc4)cc(=O)oc23)cc(OC)c1OC (stereo not shown),11.5
15,COc1ccccc1OCc1cc(C(=O)N2CC3C[C@@H]4CC2C[C@H](C3)C4)no1,8.97
16,Cc1cc(C(=O)N(C)CC(=O)Nc2ccccc2C(F)(F)F)c(C)o1,-13.4
17,Nc1ccc2ncccc2c1N,11.1
18,O=C(NCCc1c[nH]c2ccccc12)C(=O)NCC1OCCCN1S(=O)(=O)c1cccs1 (stereo not shown),5.02
19,Cc1ccc(CC(=O)NCC(C)C)cc1,8.37
20,O=C(Cn1cc(C(F)(F)F)cc(Cl)c1=O)NC1CCS(=O)(=O)C1 (stereo not shown),3.01
21,CC(C)C1N=C2c3ccccc3N=C(SCc3cc(=O)n4cc(Cl)ccc4n3)N2C1=O (stereo not shown),-24
22,CCOC(=O)NC(=O)/C(C#N)=C/c1ccc(N(C)C)cc1,15.2

row,Structure (SMILES),"hERG current change (%, negative = inhibition) at 1uM [%]"
1,CCOC(=O)c1c(CN2CCN(CCO)CC2)n(-c2ccccc2)c2cc(Br)c(O)cc12,-3.86
2,COc1cc(NS(C)(=O)=O)cc(OC)c1OC,12.1
3,O=C(Nc1cnn(Cc2ccc(Cl)c(Cl)c2)c1)C12CC3CC(CC(C3)C1)C2,8.51
4,O=C(N/C(=C\c1ccccc1)C(=O)N1CCOCC1)c1cccc(Br)c1,18.8
5,CC1CCN(C(=S)NC(=O)c2cccc([N+](=O)[O-])c2)CC1,-8.07
6,COc1ccc(CC(=O)NCCS(=O)(=O)N2CCN(c3ccccc3)CC2)cc1,6.88
7,COc1ccc(/C(C)=N\NS(=O)(=O)c2ccccc2)cc1OC,-1.16
8,CCOc1cc(Cl)c(S(=O)(=O)NCc2ccccn2)cc1Cl,4.71
9,N#C/C(C(N)=O)=C1/CCCN1Cc1ccccc1,3.5
10,Cc1ccc2cc(C(c3nnnn3C3CCCC3)N3CCN(c4ccc(F)cc4)CC3)c(=O)[nH]c2c1 (stereo not shown),1.78
11,CCC(C(=O)NCCc1ccccc1OC)n1nc(C)c2c(C)n(-c3ccccc3)nc2c1=O (stereo not shown),-6.39
12,COc1cc2c(cc1OC)-c1cc(OCCN3CCOCC3)nc(=O)n1CC2,-10.5
13,N#CC1=C(N)OC2=C(C(=O)CCC2)C1c1cccs1 (stereo not shown),12.5
14,COc1ccc(C)cc1NCc1cc(=O)oc2cc(-c3ccccc3)c(O)cc12,5.03
15,C=CCn1c(SCC(=O)NCc2ccco2)nc2ccccc2c1=O,-14.4
16,COc1cccc(-c2c(C(=O)N/N=C/c3ccncc3)nnn2-c2nonc2N)c1,0.9
17,Cc1c(N2C(=O)C(C)SC23C(=O)Nc2ccccc23)c(=O)n(-c2ccccc2)n1C (stereo not shown),12.8
18,O=C(NCCc1ccccc1)c1c(O)c2cccc3c2n(c1=O)CC3,-0.679
19,CC(=O)Nc1ccc(NS(=O)(=O)c2ccc3c(c2)n(C)c(=O)n3C)cc1,12
20,CCOC(=O)c1ccc(NC(=S)NCc2ccco2)cc1,6.12
21,CCCCCCSc1cccc(-c2nc3cc(C)ccn3c2NCc2ccccc2)c1.O=C(O)C(F)(F)F,9
22,Cc1cc(C)cc(NC(=O)CCc2nc3ccccc3[nH]2)c1,7.3

row,Structure (SMILES),"hERG current change (%, negative = inhibition) at 1uM [%]"
1,CCOC(=O)C1CCN(Cc2cccc(OC)c2)CC1,12.4
2,COc1ccc(C2NC(=S)NC(C)=C2C(=O)N2CCOCC2)cc1 (stereo not shown),10.5
3,C=CCn1c(SCC(=O)NCC2CCCO2)nc2c([nH]c3ccccc32)c1=O (stereo not shown),10.2
4,Cl.Cn1c(=N)n(CC(O)c2cccs2)c2ccccc21 (stereo not shown),-7.58
5,CC(=O)Oc1c(C)c2c3c(c1OC(C)=O)[C@@H](C)CC[C@@H]3[C@@H](C)C[C@H]2C=C(C)C,11.1
6,CC(C)c1ccc(/C=C/C(=O)NC(=S)Nc2ccc(CN3CCOCC3)cc2)cc1,17.5
7,Cc1cccc(Cn2c(O)c(N=NC(=S)Nc3ccccc3F)c3ccccc32)c1,8.64
8,Cn1nnc2c[n+](CC(=O)c3ccc4ccccc4c3)cc(Br)c21.[Br-],-3.01
9,CSc1nc(C)c(CCOC(=O)c2ccccc2)c(=O)[nH]1,6.43
10,COCCn1c(=NC(=O)c2sc3ccccc3c2Cl)sc2cc(S(N)(=O)=O)ccc21,5.41
11,CCN(CC(=O)Nc1ccc(OC)cc1)C(=O)c1ccccc1Sc1ccccc1C#N,15.1
12,Cc1cc(C)n(CCNC(=O)c2cc(COc3ccc(F)cc3Cl)on2)n1,3.24
13,O=C(NC1CCCCCC1)c1cccs1,6.48
14,C/C(CC(=O)NCCCN1CCOCC1)=N\NC(=O)COc1ccc(Cl)cc1,10.2
15,CCSc1ncc(/C=N/Nc2ccccc2)n1C,-3.84
16,Cc1cc(C)c2nc(N3CCC(C(=O)N4CCCC4)CC3)sc2c1,-15.1
17,CCc1cccc(NC(=O)CN(C)C2=NS(=O)(=O)c3ccccc32)c1,14
18,O=S(=O)(C=C(c1ccccc1)c1ccccc1)c1ccccc1,1.9
19,COc1cccc(Nc2nnc(SCC(=O)N3CCOCC3)s2)c1,-3.22
20,COC(=O)c1cn(NC(=O)Cc2cccc(OC)c2)c(=O)c2ccccc12,8.2
21,COc1cc(/C=N/N=C(/N)c2nonc2N)cc(Br)c1OCc1ccccc1C,-4.22
22,COc1cccc(OCC(=O)NNC(=O)C(=O)Nc2cccc(C)c2)c1,7.02

row,Structure (SMILES),"hERG current change (%, negative = inhibition) at 1uM [%]"
1,CCOC(=O)c1cc([N+](=O)[O-])c([N+](=O)[O-])cc1NC(C)=O,16.6
2,O=C(c1cccc(S(=O)(=O)N2CCOCC2)c1)N1CCCc2ccccc21,11.9
3,CCC1CCCCN1C(=S)NCc1ccccc1 (stereo not shown),2.42
4,Cc1ccnc(NC(=O)CCC2CCCCC2)c1,3.7
5,CC1Cc2ccccc2N1S(=O)(=O)c1cnc[nH]1 (stereo not shown),13.2
6,O=C(COc1ccc2c3c(c(=O)oc2c1)CCC3)Nc1ccc(CN2CCOCC2)cc1,10.7
7,COC(=O)c1cc(NC(=S)NCc2ccc(Cl)cc2)cc(C(=O)OC)c1,4.71
8,CCc1ccc(Nc2ncc3c(n2)CC(C)CC3=O)cc1 (stereo not shown),8.87
9,C/C(=N\Nc1cccc(Cl)c1)c1ccncc1,0.861
10,Cc1nn(-c2ccccc2)c(N2CCCC2)c1/C=N/NC(=O)c1cc(-c2cccs2)nc2ccccc12,8.03
11,O=C(NCCCn1ccnc1)c1nc(Cn2cc([N+](=O)[O-])cn2)no1,11.1
12,NC(=O)Nn1c(CCC(=O)O)ccc1-c1ccc(F)cc1,16.8
13,CC(NC(=O)OCc1ccccc1)c1ccccc1 (stereo not shown),5.36
14,Cc1nn(-c2ccccc2)cc1C(=S)Nc1ccccc1,0.119
15,C=CCSC1=N/C(=C\c2ccsc2)C(=O)S1,-0.756
16,CCN(C(=O)CN1C(=O)NC(c2ccccc2)(c2ccccc2)C1=O)c1ccccc1,10
17,COCCNC(=O)c1c(N)n(Cc2ccco2)c2nc3ccccc3nc12,9.18
18,CC(=O)c1c(C)oc(C)c1CSCc1ccc(C(=O)O)o1,4.74
19,Cc1ccc(NC(=O)C2C(c3ccccc3)C2(Cl)Cl)c(C)c1 (stereo not shown),2.95
20,O=C(CSc1nnc(CNc2ccc(F)cc2)o1)N1c2ccccc2Sc2ccccc21,12.7
21,O=c1c2cc(N3CCOCC3)ccc2[nH]c(=S)n1CCCN1CCCCC1,-5.49
22,COc1cccc(N2CCN(C(=O)C3CCN(S(=O)(=O)c4ccc5c(c4)oc(=O)n5C)CC3)CC2)c1,10.5

# Source: publication PMC4336329 (PLoS ONE, 2015)
